Among all 48,000 compounds or so, about 450 (0.94%) were called active. The inconclusive results got no clear call from the source; some entries with a clear call stand among them for comparison. Calls follow the shape of the dose curve; as a rule, active = well fitted inhibition curve with a large enough effect; inconclusive = small, poorly fitted or top-dose-only effect; inactive = no such curve, though single readings can be large or run the other way. Potencies of inconclusive entries are doubtful fits and often do not repeat.
experiment: Primary qHTS for Identification of Small Molecule Inhibitors of Huntingtin Promoter Activity; conditions: HEK293 HTT promoter firefly luciferase reporter (activity 0% = vehicle and -100% = no light), 24 h; series mostly up to 57.5 µM; also: nearly all actives have a fitted effect of over 50% in size
Description: Assay Provider: Russell L. Margolis M.D.
Department Neurology, Johns Hopkins University School of Medicine, Baltimore, MD
Huntington's Disease (HD) is a neurodegenerative disorder caused by a CAG repeat expansion in exon 1 of huntingtin (HTT). While there are currently no disease-modifying treatments for HD, recent efforts have focused on development of nucleotide-based therapeutics to lower HTT expression. As an alternative to siRNA or oligonucleotide methods, we hypothesized that suppression of HTT expression might be accomplished by small molecules that either (1) directly decrease HTT expression by suppressing HTT promoter activity or (2) indirectly decrease HTT expression by increasing the promoter activity of HTT-AS, the gene antisense to HTT that appears to inhibit expression of HTT.
We developed and employed a high throughput screen for modifiers of HTT and HTT-AS promoter activity using luminescent reporter HEK293 cells; of the 52,041 compounds tested, we identified 898 replicable hits. We used a rigorous stepwise approach to assess compound toxicity and the capacity of the compounds to specifically lower huntingtin protein in 5 different cell lines, including HEK293 cells, HD lymphoblastoid cells, mouse primary neurons, HD iPSCs differentiated into cortical-like neurons, and HD hESCs. We found no compounds which were able to lower huntingtin without lowering cell viability in all assays, though the potential efficacy of a few compounds at non-toxic doses could not be excluded.
SEQUENCE No. (1, 2, 3, etc.); […] (e.g., Cells, Incubation, Reagent, etc.); VALUE and DESCRIPTION.
1; Reagent; 4 uL; 2,500 Hek293 luciferase reporter cells per wells
3; Compound; 23 nL; Control inhibitor / compound library
5; Reagent; 2.5 uL; Firefly Luc reagent; Dual-Glo Luciferase Reporter Assay System (Promega)
6; Time; 10 min; room temperature incubation
7; Detection; Luminescence; FLuc
NOTES (numbers refer to sequence above)
1; High-throughput screening, measuring luminescence from a Hek293 luciferase reporter, was performed in 1,536 well white-walled tissue-culture treated plates. 2,500 cells were plated in 4 µL of Opti-MEM per well using a Multidrop Combi Reagent Dispenser (ThermoFisher).
2; Assay plates were cultured for 24 hours.
3; Control inhibitor (PTC124; final concentration of 50 uM) and compound library (at final concentrations of 460 nM - 57.5 uM) were added to the assay plate using the Kalypsis Pintool Robotic System equipped with 1536 pinheads.
4; Cells were then incubated for 24 hours at 37 degrees C prior to luminescence measurements.
5; In all cases, luminescence was measured using the Dual-Glo Luciferase Reporter Assay System (Promega) following the manufacturer's instructions.
6; Room temperature incubation.
7; Luminescence signal was obtained using the PerkinElmer ViewLux plate reader. Results were normalized to vehicle control (0% activity) and zero RLU (-100% activity).
Potency is read from the fitted curve at half-maximal effect; tags tell the direction and shape of the fitted curve.

SMILES | Potency
Cc1ccc(C(=O)Nc2nc(-c3nnn(-c4cccc(Cl)c4C)c3C)ns2)cc1C | inconclusive: 3.98 µM [inhibitor, full curve]
COc1cccc(-c2nc(CS(=O)(=O)CC(=O)NCCc3ccc(OC)c(OC)c3)c(C)o2)c1 | inconclusive: 28.2 µM [inhibitor, single point]
CCOC(=O)C1=C(CN2CCN(c3cccc(OC)c3)CC2)NC(=O)NC1c1ccc(OC)cc1 (centres undefined) | inconclusive: 39.8 µM [inhibitor, single point]
COc1ccc(NC(=O)c2oc3c(c2C)-c2nn(Cc4ccccc4Cl)cc2CC3)cc1OC | inconclusive: 17.8 µM [inhibitor, partial curve, poor fit]
Cc1oc(-c2ccc(Cl)cc2)nc1CSCC(=O)NCc1ccccc1Cl | inconclusive: 10 µM [inhibitor, partial curve, poor fit]
CC(CNC(=O)Cn1c(-c2cccs2)cc2ccccc21)c1ccccc1 (centres undefined) | inconclusive: 35.5 µM [inhibitor, single point]
CCCOc1ccc(C2c3c(-c4ccccc4O)n[nH]c3C(=O)N2CCCOCC)cc1OCC (centres undefined) | inconclusive: 22.4 µM [inhibitor, partial curve]
Cc1ccc(Cl)cc1N1CCN(CCCNC(=O)c2nnc(Cc3cccc(Cl)c3)o2)CC1 | inconclusive: 31.6 µM [inhibitor, partial curve, poor fit]
CCC(=O)N1CCCc2cc(S(=O)(=O)N3CCC(C(=O)Nc4ccccc4CC)CC3)ccc21 | inconclusive: 15.8 µM [inhibitor, partial curve, poor fit]
CC1=C(c2ccc(C)c(C)c2)S(=O)(=O)N=C1N1CCC(C(=O)Nc2cccc(F)c2)CC1 | inconclusive: 25.1 µM [inhibitor, partial curve, poor fit]
COc1cccc(NC(=O)CSc2nnc(-c3cccs3)o2)c1 | inactive
CC(C)(S)[C@@H](N)C(=O)O | inconclusive: 24.3 µM [inhibitor, partial curve]
Cc1c(C)n(Cc2ccc(F)cc2)c2ccc(C(=O)Nc3ccc(Cl)cc3)cc12 | inconclusive: 15.8 µM [inhibitor, single point]
CCOC(=O)c1cnc2ccc(C)cc2c1NCCc1ccc(OC)c(OC)c1 | inactive
COc1ccc(C)cc1NC(=O)N1CCN(c2cc(-c3noc(C)n3)ccc2C)CC1 | inconclusive: 39.8 µM [inhibitor, partial curve]
CCc1ccc(NC(=O)Cn2c(=O)oc3cc(S(=O)(=O)N4CCCCCC4)ccc32)cc1 | inconclusive: 14.1 µM [inhibitor, partial curve, poor fit]
Cc1onc(-c2ccc(F)cc2F)c1C(=O)Nc1cccc(C(F)(F)F)c1 | inconclusive: 31.6 µM [inhibitor, single point]
O=C(Nc1ccccc1)c1cccc(S(=O)(=O)Nc2cccc(F)c2)c1 | inconclusive: 25.1 µM [inhibitor, partial curve, poor fit]
COc1ccc(CCNC(=O)c2c(C)nn(-c3ccc(F)cc3)c2-n2cccc2)cc1OC | active: 20 µM
CC(=O)N[C@@H](CCC(N)=O)C(=O)O | inactive

SMILES | Potency
O=S(=O)(Nc1nc2n(n1)C(c1ccc(F)cc1)C=C(c1ccccc1)N2)c1ccc(Cl)cc1 (centres undefined) | inactive
O=C(CCc1nc2cccnc2n1Cc1cccs1)Nc1cccc(Cl)c1 | inconclusive: 39.8 µM [inhibitor, single point]
CCOC(=O)c1cc(-c2ccccc2)n(CCC(=O)Nc2ccc(Cl)c(C(F)(F)F)c2)c1C | active: 22.4 µM
Cc1cccc(NS(=O)(=O)c2ccc(-n3cccn3)cc2)c1C | inconclusive: 39.8 µM [inhibitor, single point]
Cn1cc(S(=O)(=O)N2CCCCCC2)cc1C(=O)NCc1ccccc1Cl | inconclusive: 39.8 µM [inhibitor, single point]
Cc1cc(-c2nnc3n2CCCCC3)c(C)n1-c1ccccc1 | inconclusive: 24.3 µM [inhibitor, partial curve]
CCOC(=O)N1CCc2c(sc(NCc3ccc(OC)c(OC)c3OC)c2C(=O)Nc2ccc(OC)cc2OC)C1 | inconclusive: 17.8 µM [inhibitor, partial curve, poor fit]
CCc1nnc(NC(=O)c2nc(SCc3ccccc3C)ncc2Cl)s1 | inactive
Cc1c(Cl)cccc1NC(=O)Cn1c(=O)nc(-c2ccccc2)c2ccccc21 | inconclusive: 20 µM [inhibitor, partial curve, poor fit]
CCC(=O)Nc1ccc(S(=O)(=O)NCc2ccc3c(c2)CCN3C(=O)c2ccc(C)cc2)cc1 | inconclusive: 11.2 µM [inhibitor, partial curve]
CCOC(=O)c1c(-c2ccccc2)csc1NC(=O)c1nc(S(=O)(=O)CC)ncc1Cl | inconclusive: 35.5 µM [inhibitor, single point]
Cc1cccc(-c2c3c(=O)n(C)c(=O)n(C)c3cn2-c2cc(N)c(Cl)cc2Cl)c1 | inconclusive: 35.5 µM [inhibitor, single point]
Nc1cc(=O)nc(SCC(=O)Nc2cccc(Cl)c2)n1CCc1ccccc1 | inconclusive: 10 µM [inhibitor, partial curve, poor fit]
CSc1ccc(-c2nc3ncccn3c2Nc2ccc(C)c(C)c2)cc1 | inconclusive: 39.8 µM [inhibitor, single point]
CC(C)(C)OC(=O)N1CCC(c2c(C(=O)NCc3cccs3)cnn2-c2ccc(F)cc2F)CC1 | inconclusive: 35.5 µM [inhibitor, partial curve, poor fit]
[O-][n+]1ccccc1SSc1cccc[n+]1[O-] | inconclusive: 17.8 µM [inhibitor, single point]
CCS(=O)(=O)c1ncc(Cl)c(C(=O)N2CCN(c3cccc(Cl)c3)CC2)n1 | inconclusive: 17.8 µM [inhibitor, partial curve, poor fit]
Cc1ccc(CNS(=O)(=O)c2cc(C(=O)Nc3cccc(C(F)(F)F)c3)ccc2F)cc1 | inconclusive: 39.8 µM [inhibitor, single point]
Cc1cc(C)c2c(=O)cc(CSc3nnc(COc4ccccc4C)n3C)[nH]c2c1 | inactive
COc1ccccc1-c1cc(C(F)(F)F)nc(S(=O)(=O)CCCC(=O)Nc2cc(OC)c(OC)c(OC)c2)n1 | inactive

SMILES | Potency
COc1ccc(CC(=O)NCc2ccc3c(c2)CCN3C(=O)c2ccc(Cl)cc2)cc1OC | inconclusive: 15.8 µM [inhibitor, partial curve, poor fit]
Cc1cc(-c2ccc(C)c(S(=O)(=O)N(C)c3ccc(C)c(C)c3)c2)on1 | inconclusive: 25.1 µM [inhibitor, single point]
CCOC(=O)c1c(Oc2ccc(OC)cc2)nnc(-c2ccccc2)c1-c1ccccc1 | inconclusive: 22.4 µM [inhibitor, partial curve, poor fit]
CC(C)c1ccc(S(=O)(=O)c2cnc(SCC(=O)Nc3cccc(C(F)(F)F)c3)nc2N)cc1 | inconclusive: 28.2 µM [inhibitor, single point]
O=C(Nc1ccc2nc(SCCOc3ccccc3Cl)sc2c1)c1cccs1 | inconclusive: 17.8 µM [inhibitor, single point]
O=C(NCc1cccnc1)c1nn(-c2ccccc2F)nc1CO | inconclusive: 39.8 µM [inhibitor, partial curve, poor fit]
Cc1ccc(N(C(=O)COc2ccccc2C)S(=O)(=O)c2ccc(Cl)cc2)cc1 | inconclusive: 35.5 µM [inhibitor, single point]
CC(=O)N(CC(=O)N(C)C)c1ccccc1 | inactive
O=C(NCc1ccc(Cl)cc1)C1CCCN(C(=O)c2cnn(-c3ccc(F)cc3)c2-n2cccc2)C1 (centres undefined) | inconclusive: 20 µM [inhibitor, partial curve, poor fit]
CCC[C@H](Nc1nc(-c2ccc(NC(=O)NCC)c(OC)c2)ncc1C)c1cccnc1 | inconclusive: 0.0137 µM [inhibitor, full curve, poor fit]
Cc1cccc(-c2nn3c(=O)cc(CN4CCN(S(=O)(=O)c5ccc(Cl)cc5)CC4)nc3s2)c1 | inconclusive: 39.8 µM [inhibitor, single point]
CCC(C(=O)Nc1ccccc1C(=O)OC)n1nc(C)c2c(C)n(-c3ccc(C)cc3)nc2c1=O (centres undefined) | inconclusive: 39.8 µM [inhibitor, single point]
CCc1ccc(NC(=O)c2sc3nc(C)c(Cl)c(C)c3c2N)cc1 | inactive
CCOc1ccccc1C(=O)N1CC(=O)Nc2ccc(Cl)cc2C1c1ccccc1 (centres undefined) | inconclusive: 39.8 µM [inhibitor, single point]
Cc1ccc(NC(=O)C2CCCN2S(=O)(=O)c2ccc3c(c2)CCCC(=O)N3)cc1C (centres undefined) | inconclusive: 22.4 µM [inhibitor, partial curve, poor fit]
CC(=O)Nc1cc(C(=O)NCc2ccc(C)cc2)ccc1Sc1ccc(C)cc1 | inconclusive: 25.1 µM [inhibitor, single point]
CCc1ccc(-c2nc(CN3CCCC(C(=O)N4CCN(c5cc(Cl)ccc5C)CC4)C3)c(C)o2)cc1 (centres undefined) | inconclusive: 22.4 µM [inhibitor, partial curve, poor fit]
COc1ccc(Cl)cc1NC(=O)CN(C)S(=O)(=O)c1ccc2c(c1)CCCN2C(C)=O | inconclusive: 28.2 µM [inhibitor, single point]
CC(CNC(=O)Cn1ccc2cc(S(=O)(=O)N3CCCCCC3)ccc21)c1ccccc1 (centres undefined) | inconclusive: 25.1 µM [inhibitor, partial curve, poor fit]

From PubChem BioAssay AID1508623 (National Center for Advancing Translational Sciences (NCATS), 2021)
